Test results as given in the supplement of paper PMC11417369.
The list shows a part of the results.

What follows are sequences tested on PfAP2-HC AP2 domain (GST-tagged) (assay: gcPBM binding intensity (ln(normalized median fluorescence intensity)); higher = stronger DNA binding).
Procedure, shortened: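 Binding intensity is defined as the maximum Masliner-normalised natural-log median intensity across replicate spots for either probe orientation. It was measured on an Agilent 4 × 180k array of primer-extended double-stranded 36-bp intergenic genomic probes and negative controls, to which GST-tagged P. falciparum DNA-binding domains made in E. coli were applied for 1 h in 1× PBS with 1% milk, 0.2 mg/ml BSA, 0.5% salmon testes DNA and 0.03% Triton X-100. Detection was by Alexa488 anti-GST antibody and scanning at 488 nm.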

| Sequence | gcPBM binding intensity (ln) |
| --- | --- |
| GTGTAAATATAATTAGTTTCACAAAACAAATATTTA [CACACA_negctrl_site717] | 9.61 |
| AGGCACAAAATTAAATGTACATATATATATATATAT [XGTACX_site3323] | 9.66 |
| CATATACAGAAACACACACACACATAAATAAATATA [CACACA_site1343] | 11 |
| TTTAATTAAATATGTATATATATTCATGTATGTATA [GTGCAC_negctrl_site14] | 9.58 |
| AGTAGATATAAAAGGAGTACACATATATATATAAAT [XGTACX_site4375] | 9.85 |
| AAAAAAAAAAGACACACACACATATTTATTTATATA [CACACA_site6484] | 10.4 |
| AATATATAAGTGTTGTGTACTAAAGTATTTTCCTAT [XGTACX_site1622] | 9.95 |
| ATAGTATCTGGTAGCTGTACGAGTCGTATAGTGCAG [XGTACX_site2542] | 9.66 |
| TTTCCGTATAATTTTGCACACGAATATAAATTTGAT [CACACA_site137] | 9.72 |
| ATAGTTTTACACATTTGTACATAATTTACAACAAAA [XGTACX_site25] | 9.55 |
| ATATATATATATTCCACACACACACTAATAAAAAAA [CACACA_site9214] | 10.3 |
| TTTAATCAAATTAAAAGTACAGAATTGTTCATGTAG [XGTACX_site1229] | 9.53 |
| AAAAAATATTATATATGTACATAATATTTTTTTTTT [XGTACX_site5909] | 9.4 |
| TATATATATATATATACATGCATATTTTTTATTTTT [TGCATGCA_site464] | 9.5 |
| TTTTTTATATATATTTGTACATATTGCATGTTCCCT [XGTACX_site7143] | 9.72 |
| TATATTTATCTGATAACACACATAAATTAGACATTT [CACACA_site6887] | 9.55 |
| TGTCTTATATATATTACACACTATATGAAAAAATAT [CACACA_site1487] | 9.6 |
| TAATTTAATAATTAGACACACATGTCTAAAATAAAA [CACACA_site2527] | 9.61 |
| AAAAGAAATTTGGGCACATGCGAATTTATAATTTAT [TGCATGCA_site960] | 9.71 |
| TAAAGTATTACAACCACACACACACCGATATATTAT [CACACA_site9382] | 10.8 |
| CAACATTTATATTTTACACACATCATTTAAGCGCTT [CACACA_site992] | 9.98 |
| ATTGTTTTATATAGAACACACATAAAAATCTATATG [CACACA_site6681] | 9.63 |
| TTATTATATAAAATAAATAACAAAAAAAATAAAATA [GTGCAC_negctrl_site548] | 9.56 |

| Sequence | gcPBM binding intensity (ln) |
| --- | --- |
| TTTGAAATAAATAATGCACACTCTACATATATACGT [CACACA_site2244] | 9.79 |
| CCTATCCATACATATACACACATATCTATTTATATA [CACACA_site1669] | 9.91 |
| AAATAAAATACAAGTTGTACTATAAGCTTTTTATAT [XGTACX_site8021] | 9.64 |
| AATATGGTTATATATATATATATATATATATATATT [GTGCAC_negctrl_site566] | 9.78 |
| CCTATCCAGACATATACACACATATCTATTTATATA [CACACA_site5001] | 9.91 |
| TATAAAAAATAATACACACACATGGCGACAAAATAA [CACACA_site2420] | 10.5 |
| TTTACTTTCCCAAGTTGTACTGCTTCTAAGCTTTTT [XGTACX_site2708] | 9.7 |
| AATGATAATATTTCCTTCTTTTTTACTTCTTTCTTT [CACACA_negctrl_site776] | 9.63 |
| AAAATGGTTTATAAATGTACATATATTATATATAAC [XGTACX_site7959] | 9.72 |
| AAAAAAAATTTCTTCTGTACGCATAAATTTTTATTA [XGTACX_site8721] | 9.49 |
| TATTTAATTTTTAAATGTACATATAAAATAATATAT [XGTACX_site2422] | 9.42 |
| TTTTTCAGAAAAGAAACACACATATATATATTTATA [CACACA_site2372] | 9.56 |
| CATATAAAATAATTCACACAAATATACAAATACCCA [CACACA_site5340] | 9.87 |
| CTTTATAAAATAAGAGTGCGTTATATTGAATTGTAT [GTGCAC_site9390] | 9.56 |
| ATATAAGATTTAAGAAGTACAATTATACAGTAGATC [XGTACX_site7501] | 9.75 |
| ATATAACATAGACACACACACATATAAATATATTAT [CACACA_site7865] | 10.6 |
| TTTTTATAACGTAATAAATAAAACGTCTATACTATA [XGTACX_negctrl_site176] | 9.7 |
| AAAAATATAATATAATGTACACAAAAAAAAAAATTC [XGTACX_site3657] | 9.78 |
| AATTAGACATAATATACACACATATATTATAGATAT [CACACA_site7297] | 9.86 |
| TATATTATTATAATTTGTACATATCTAATTATATAT [XGTACX_site5342] | 9.74 |
| TAAAGATATTATTTTTGTACATATTGATATAATGAA [XGTACX_site6571] | 9.4 |
| ACGTTTTATAATTAATGTACAAATATTAAAATTGCA [XGTACX_site7869] | 9.48 |
| GAATAAATTAAAAATGCACACTTTGATGGGTACATT [CACACA_site5220] | 9.7 |

| Sequence | gcPBM binding intensity (ln) |
| --- | --- |
| TATATTTGCAGTAATAATAATTATTATAAAAGATAA [XGTACX_negctrl_site547] | 9.57 |
| TTATTTATTTTAAATTCACACATCGTGCTATTATAT [CACACA_site5003] | 10.1 |
| TCATATATTTATGTATGTACATATATATATAGATTA [XGTACX_site380] | 9.44 |
| TATGAATGGTTAAGTACACACATATTAAGATATGTA [CACACA_site5852] | 9.72 |
| ATATAAACATATAATAGTACACTTCGATAATTTTAT [XGTACX_site3321] | 9.71 |
| ATTTAACATATAAAATGTACATATATATATATATTT [XGTACX_site2525] | 9.7 |
| GTACCATCAAAATAAATATATATATATATATATTTT [GTGCAC_negctrl_site646] | 9.66 |
| AAAATAAAAAAAATAAATAAAAAAAATAATAATAAA [CACACA_negctrl_site563] | 9.69 |
| TCATAAATATAAAGTGTGCACTTGAATAATATGTAT | 9.72 |
| TAAATAAATCTGTGCTTGCACTTTTTTTGTTATTTT | 9.66 |
| ACATGTAATATAATGTGTACATATACAAAGGTATAT [XGTACX_site4145] | 10.2 |
| AGATGAGAAATATATACACACAATAATACCTATTTA [CACACA_site876] | 10.2 |
| ATAAAGTATATTATATGTACATATATATATTATATA [XGTACX_site1345] | 9.64 |
| TTTGTGTTGTATTTTTGTACATAAAATAAACTTAAA [XGTACX_site4637] | 9.37 |
| TTTCTTTTTTCTTCAGTGCATTAAAATTAACAAAAG | 9.34 |
| GAGCCCAAAAAATTAGGTACGTATAAAGAGGTATTT [XGTACX_site5348] | 9.5 |
| CATATATATATTGGAAGTACATATTTAATATTCATT [XGTACX_site3545] | 9.56 |
| AGGAAAATTTTATTTGCACACATTATTACGTCTAAA [CACACA_site2337] | 9.82 |
| TCTTTTTTCATATTTTCACACATGTCTTTATATTTA [CACACA_site6025] | 10 |
| ATTCCTTTATTATCACGTACTTATAAAATATAGTAT [XGTACX_site7498] | 9.85 |
| ATAAACAGATAAAAGGGTACACACATATATACATGT [XGTACX_site452] | 10.3 |
| TTATATATATATTGTTCACACATAATATAAATATTT [CACACA_site5835] | 9.47 |
| TTAAATAAAATAAAAACATGCACACTTTATTTTTTT [TGCATGCA_site719] | 9.74 |

| Sequence | gcPBM binding intensity (ln) |
| --- | --- |
| TTTTAATAAATCATTTTCCTAATATTTATATTTGCT [TGCATGCA_negctrl_site232] | 9.52 |
| TTTTTCATTTAGCTTTTACACACTATATATTATTGA [CACACA_site7888] | 9.9 |
| TATATTTTTATGTGTGTGCACAAAATAACAAAATAT [GTGCAC_site9596] | 10 |
| ATTATTTTTTTTGAAGTGCAATATTATTTTTAATCA | 9.5 |
| GTTAAGTGGATATATACACACATATGCAATACATGA [CACACA_site7427] | 9.88 |
| ATGGTTATATTTGAAGTGCAAAAAAAAATATATGTA | 9.59 |
| TATACTACCCAGAGCTGTACAAAATAATAATAAGTT [XGTACX_site1045] | 9.81 |
| ATGTGGATTTTATAATGTACATATGATATTATTTTG [XGTACX_site7930] | 9.76 |
| CAATTCAATATATATACACACACACTATTAATAATT [CACACA_site9256] | 10.3 |
| TACTTTTTTATTTGGTGTACAAATAAAATCATAATG [XGTACX_site1802] | 9.62 |
| GAAGATATATAATAATTCATAGTTTTTTAATTTAAA [TGCATGCA_negctrl_site295] | 9.54 |
| ATATATTTTGATTGCACACAGAATTTAAATCATGAT [CACACA_site2343] | 9.78 |
| CTCTTTTCTTATAATACACACAGTAATATTTATATA [CACACA_site6824] | 9.77 |
| AATAAAAAAAATTTCTGTACATATATTTATTATATA [XGTACX_site1883] | 9.44 |
| AAAAAAAAAAAAATTGCATGTAAATGAAATAATAAA [TGCATGCA_site116] | 9.68 |
| AAAGAAGAAAAATATAGTACAGGGCACATGTCCTGT [XGTACX_site6293] | 9.6 |
| ATTTAAATTTAAAAAACACACATAATATGATATATA [CACACA_site1973] | 9.69 |
| TTATTTTTATATTTCACACACATATACTTTTACATA [CACACA_site4097] | 10.2 |
| TATTGTAGTCATGCACGTACAAAAGGAAAGTTAAAA [XGTACX_site4446] | 9.59 |
| ATAAATTAATGGAGAAATCTTATGAATTTATTTTAA [CACACA_negctrl_site1068] | 9.47 |
